Experimental data taken from article PMC5684335, “ER-associated degradation regulates Alzheimer’s amyloid pathology and memory function by modulating γ-secretase activity” (Nature Communications, 2017).
Results are given in words; binding and its absence hold for the method and conditions named. In cells and extracts the contact can be indirect. Some entries that bind do so weakly or less than the wild type.

By UniProt entry, the sequences of proteins in these tests, tags left out. Residues count along the entry.
UniProt Q8CIV2: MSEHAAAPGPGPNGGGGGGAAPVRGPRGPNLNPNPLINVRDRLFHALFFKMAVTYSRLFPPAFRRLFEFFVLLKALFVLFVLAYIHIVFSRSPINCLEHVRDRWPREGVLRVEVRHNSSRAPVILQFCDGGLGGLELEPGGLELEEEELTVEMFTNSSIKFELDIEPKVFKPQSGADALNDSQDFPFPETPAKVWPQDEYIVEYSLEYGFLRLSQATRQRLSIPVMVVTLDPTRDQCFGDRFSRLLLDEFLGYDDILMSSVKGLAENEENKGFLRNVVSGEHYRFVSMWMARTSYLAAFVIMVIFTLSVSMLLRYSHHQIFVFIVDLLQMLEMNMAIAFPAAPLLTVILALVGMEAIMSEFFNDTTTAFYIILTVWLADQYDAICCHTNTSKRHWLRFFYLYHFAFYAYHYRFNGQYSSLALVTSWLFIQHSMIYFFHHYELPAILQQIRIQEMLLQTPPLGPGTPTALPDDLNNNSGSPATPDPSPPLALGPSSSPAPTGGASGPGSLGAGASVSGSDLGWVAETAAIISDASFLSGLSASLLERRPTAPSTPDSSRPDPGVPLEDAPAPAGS
UniProt Q9R049: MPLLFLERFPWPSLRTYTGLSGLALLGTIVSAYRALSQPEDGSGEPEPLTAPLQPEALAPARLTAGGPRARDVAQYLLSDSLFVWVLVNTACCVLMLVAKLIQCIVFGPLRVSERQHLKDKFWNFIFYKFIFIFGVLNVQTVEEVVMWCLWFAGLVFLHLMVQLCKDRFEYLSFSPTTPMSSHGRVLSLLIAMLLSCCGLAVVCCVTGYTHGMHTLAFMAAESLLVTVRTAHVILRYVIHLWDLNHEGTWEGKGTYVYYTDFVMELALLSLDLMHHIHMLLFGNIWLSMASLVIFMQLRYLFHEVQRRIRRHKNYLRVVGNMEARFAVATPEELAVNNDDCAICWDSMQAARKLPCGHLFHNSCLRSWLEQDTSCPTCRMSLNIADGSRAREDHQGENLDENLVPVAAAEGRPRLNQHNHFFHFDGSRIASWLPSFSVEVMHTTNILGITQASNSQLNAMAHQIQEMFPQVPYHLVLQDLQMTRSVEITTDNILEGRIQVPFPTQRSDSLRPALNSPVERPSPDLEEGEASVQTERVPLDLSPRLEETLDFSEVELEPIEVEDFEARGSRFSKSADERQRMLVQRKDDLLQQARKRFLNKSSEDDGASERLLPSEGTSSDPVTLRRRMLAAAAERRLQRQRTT
UniProt Q9UKV5: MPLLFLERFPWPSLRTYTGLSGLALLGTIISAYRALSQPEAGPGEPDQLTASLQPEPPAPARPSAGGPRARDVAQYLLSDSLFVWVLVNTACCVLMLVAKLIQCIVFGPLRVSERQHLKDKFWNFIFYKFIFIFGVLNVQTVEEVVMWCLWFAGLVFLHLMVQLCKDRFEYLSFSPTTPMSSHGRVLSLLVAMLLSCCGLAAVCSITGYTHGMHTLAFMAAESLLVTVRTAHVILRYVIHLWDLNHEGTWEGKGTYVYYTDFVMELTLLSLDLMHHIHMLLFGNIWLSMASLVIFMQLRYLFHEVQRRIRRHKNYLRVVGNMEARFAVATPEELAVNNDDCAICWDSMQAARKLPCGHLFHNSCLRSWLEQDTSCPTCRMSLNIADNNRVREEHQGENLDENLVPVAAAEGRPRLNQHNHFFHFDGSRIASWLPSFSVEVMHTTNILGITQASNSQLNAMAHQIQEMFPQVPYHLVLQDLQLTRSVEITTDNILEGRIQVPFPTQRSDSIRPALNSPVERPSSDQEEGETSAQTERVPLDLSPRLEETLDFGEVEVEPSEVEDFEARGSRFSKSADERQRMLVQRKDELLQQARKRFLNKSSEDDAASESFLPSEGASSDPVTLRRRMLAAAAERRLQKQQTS
UniProt Q9DBY1: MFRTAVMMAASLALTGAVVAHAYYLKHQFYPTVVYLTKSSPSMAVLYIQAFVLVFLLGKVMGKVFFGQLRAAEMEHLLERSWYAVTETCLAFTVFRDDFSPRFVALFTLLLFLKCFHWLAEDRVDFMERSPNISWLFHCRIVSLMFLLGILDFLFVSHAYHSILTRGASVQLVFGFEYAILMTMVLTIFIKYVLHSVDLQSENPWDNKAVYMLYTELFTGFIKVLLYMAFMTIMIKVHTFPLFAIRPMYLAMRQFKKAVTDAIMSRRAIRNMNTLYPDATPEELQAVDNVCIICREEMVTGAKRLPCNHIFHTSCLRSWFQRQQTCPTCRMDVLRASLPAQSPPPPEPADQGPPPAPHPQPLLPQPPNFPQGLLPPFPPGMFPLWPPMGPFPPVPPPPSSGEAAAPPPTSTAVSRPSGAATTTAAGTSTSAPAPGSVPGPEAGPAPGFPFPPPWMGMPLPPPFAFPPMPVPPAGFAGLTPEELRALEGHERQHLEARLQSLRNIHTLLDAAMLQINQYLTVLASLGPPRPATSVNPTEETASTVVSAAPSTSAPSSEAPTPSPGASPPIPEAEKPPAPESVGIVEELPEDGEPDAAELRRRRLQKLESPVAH
UniProt Q86TM6: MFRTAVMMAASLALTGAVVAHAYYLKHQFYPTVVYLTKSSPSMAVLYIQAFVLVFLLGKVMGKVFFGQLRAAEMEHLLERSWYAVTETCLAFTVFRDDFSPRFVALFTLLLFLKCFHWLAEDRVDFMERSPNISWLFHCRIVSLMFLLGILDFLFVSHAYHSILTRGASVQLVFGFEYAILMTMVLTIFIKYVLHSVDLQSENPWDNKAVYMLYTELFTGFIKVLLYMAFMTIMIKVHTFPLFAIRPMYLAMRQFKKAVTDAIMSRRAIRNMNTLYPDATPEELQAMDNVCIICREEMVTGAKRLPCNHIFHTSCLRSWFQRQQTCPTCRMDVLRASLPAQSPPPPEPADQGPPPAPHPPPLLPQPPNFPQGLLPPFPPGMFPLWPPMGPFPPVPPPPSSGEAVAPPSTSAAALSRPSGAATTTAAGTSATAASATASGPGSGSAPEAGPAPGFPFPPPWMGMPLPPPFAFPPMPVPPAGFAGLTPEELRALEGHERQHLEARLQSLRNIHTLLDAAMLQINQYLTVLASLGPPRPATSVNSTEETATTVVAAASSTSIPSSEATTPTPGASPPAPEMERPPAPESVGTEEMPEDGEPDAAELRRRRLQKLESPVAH
UniProt Q9CQR7: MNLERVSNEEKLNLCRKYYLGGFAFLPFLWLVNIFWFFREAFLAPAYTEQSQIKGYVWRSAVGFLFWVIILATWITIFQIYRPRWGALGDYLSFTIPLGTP
UniProt P57716, residues 28-708: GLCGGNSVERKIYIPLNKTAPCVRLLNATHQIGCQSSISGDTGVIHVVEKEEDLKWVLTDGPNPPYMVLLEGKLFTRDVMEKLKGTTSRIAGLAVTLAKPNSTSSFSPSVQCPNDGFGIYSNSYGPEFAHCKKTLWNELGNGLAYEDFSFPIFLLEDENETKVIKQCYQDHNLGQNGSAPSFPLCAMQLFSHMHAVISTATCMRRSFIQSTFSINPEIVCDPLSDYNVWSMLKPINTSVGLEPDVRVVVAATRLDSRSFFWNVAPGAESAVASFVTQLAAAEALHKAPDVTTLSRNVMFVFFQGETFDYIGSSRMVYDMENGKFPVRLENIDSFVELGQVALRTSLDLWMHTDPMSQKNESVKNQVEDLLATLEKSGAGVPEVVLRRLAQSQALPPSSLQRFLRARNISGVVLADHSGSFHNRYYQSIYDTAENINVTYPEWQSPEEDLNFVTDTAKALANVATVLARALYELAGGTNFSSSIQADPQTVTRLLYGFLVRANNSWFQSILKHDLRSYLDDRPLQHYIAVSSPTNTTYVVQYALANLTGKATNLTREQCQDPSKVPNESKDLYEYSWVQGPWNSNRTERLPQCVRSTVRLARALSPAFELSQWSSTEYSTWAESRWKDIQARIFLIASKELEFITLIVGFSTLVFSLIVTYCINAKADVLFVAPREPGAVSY

What was measured:
[1] = target: endogenous membralin (N2a cells) (mouse (endogenous in N2a)) (UniProt Q8CIV2); experiment: co-IP; endogenous membralin immunoprecipitated from N2a whole cell homogenates in 1% digitonin lysis buffer; normal conditions and ER stress (tunicamycin 5 μg/ml or thapsigargin 500 nM, 4 hrs)
[2] = target: Myc-tagged mouse membralin (mouse) (UniProt Q8CIV2); experiment: co-IP; Myc-membralin transfected in HEK293T for 3 days; 1 mg lysate in IP buffer, c-Myc antibody or rabbit IgG control, protein A/G magnetic beads, 4 °C overnight; blots for endogenous proteins
[3] = target: endogenous membralin (N2a cells) (mouse (endogenous in N2a)) (UniProt Q8CIV2); experiment: co-IP; endogenous membralin immunoprecipitated from N2a membrane fractions; blots for gamma-secretase components
[4] = target: endogenous membralin (mouse brain) (mouse (endogenous in brain)) (UniProt Q8CIV2); experiment: co-IP; endogenous; mouse brain organelle-enriched (nuclear- and cytosol-free) pellet lysed in 50 mM Tris-HCl pH 8.0, 150 mM NaCl, 1% NP40; 500 μg lysate, membralin antibody, Protein G magnetic beads, 4 °C overnight

AMFR (endogenous, N2a) (from UniProt Q9R049 1-643)
binding [1]: binds

AMFR (endogenous, HEK293T) (from UniProt Q9UKV5 1-643)
binding [2]: binds

SYVN1 (endogenous, N2a) (from UniProt Q9DBY1 1-612)
binding [1]: binds

SYVN1 (endogenous, HEK293T) (from UniProt Q86TM6 1-617)
binding [2]: binds

PEN2 (endogenous, N2a) (from UniProt Q9CQR7 1-101)
binding [3]: no binding

nicastrin (endogenous, mouse brain) (from UniProt P57716 28-708)
binding [4]: binds

immature nicastrin (endogenous, N2a) (from UniProt P57716 28-708)
binding [3]: binds
